Data reported in paper PMC7718926.
Where a chain is given by its changes, count along the chain named. Numbers in names are those of the source. Results are given in words; binding and its absence hold for the method and conditions named. In cells and extracts the contact can be indirect. Some binding calls cover weakened binding; strength is not graded here.

B1: actin-depolymerization factor 4 (ADF4), wild type (protein, UniProt Q9ZSK3 1-139)
chain: MANAASGMAVHDDCKLRFLELKAKRTHRFIVYKIEEKQKQVIVEKVGEPILTYEDFAASLPADECRYAIYDFDFVTAENCQKSKIFFIAWCPDVAKVRSKMIYASSKDRFKRELDGIQVELQATDPTEMDLDVLKSRVN
B2: ADF4 S105A (phospho-null derivative) (protein, UniProt Q9ZSK3 1-139)
chain: B1 chain with S105A
B3: ADF4 S106A (phospho-null derivative) (protein, UniProt Q9ZSK3 1-139)
chain: B1 chain with S106A
B4: ADF4 S106D (phosphomimic variant) (protein, UniProt Q9ZSK3 1-139)
chain: B1 chain with S106D
B5: ADF4 S105D (phosphomimic variant) (protein, UniProt Q9ZSK3 1-139)
chain: B1 chain with S105D

Each binder was assayed against Arabidopsis actin-7 (ACT7) (Arabidopsis) (UniProt P53492) (assay: co-IP; transient co-expression in N. benthamiana; extract in 50 mM HEPES pH 7.5, 50 mM NaCl, 10 mM EDTA, 0.2% triton X-100; anti-Flag M2 or anti-actin monoclonal antibody with protein-G sepharose, 4 °C; blot with anti-Flag M2-peroxidase).

Row | binding | Binder
1 | binds | B1
2 | binds | B2
3 | binds | B3
4 | no binding | B4
5 | no binding | B5
